Test results published in US20230279089A1 (GlaxoSmithKline, published 2023).

Molecular target: T1, Human BMP1-1 (human, UniProt P13497-2 121-730, limits assumed)
T1 sequence (looked up): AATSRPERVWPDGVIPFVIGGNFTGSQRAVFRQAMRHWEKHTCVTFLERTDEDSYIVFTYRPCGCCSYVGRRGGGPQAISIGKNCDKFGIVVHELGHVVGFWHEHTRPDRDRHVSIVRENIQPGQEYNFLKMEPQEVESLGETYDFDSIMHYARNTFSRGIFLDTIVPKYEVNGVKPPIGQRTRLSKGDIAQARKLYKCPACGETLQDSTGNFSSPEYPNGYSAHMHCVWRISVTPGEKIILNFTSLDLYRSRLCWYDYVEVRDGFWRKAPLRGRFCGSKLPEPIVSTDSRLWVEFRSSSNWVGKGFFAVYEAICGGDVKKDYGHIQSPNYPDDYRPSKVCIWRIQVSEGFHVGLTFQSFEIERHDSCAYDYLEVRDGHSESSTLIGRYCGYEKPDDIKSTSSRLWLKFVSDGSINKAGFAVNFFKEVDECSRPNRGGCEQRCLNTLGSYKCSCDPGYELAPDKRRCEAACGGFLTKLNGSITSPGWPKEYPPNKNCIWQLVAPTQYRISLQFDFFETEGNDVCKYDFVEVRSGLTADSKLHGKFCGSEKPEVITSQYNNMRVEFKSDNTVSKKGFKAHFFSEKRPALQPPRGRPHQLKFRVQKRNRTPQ
Assay: cell-based or functional assay

B1: 13Y039-3E07-2944 (antibody, human IgG1, kappa)
heavy: QVQLQQWGAGLLKPSETLSLTCAVYGGSFFGDYWSWIRQPPGKGLEWIGEIDWSGATNYNPSLKSRVTISVDTSKNQFSLKLSSVTAADTAVYYCARGGSKELSFDIWGQGTMVTVSS[gap - human IgG1 constant region with L235A G237A (EU numbers)]
light: DIQMTQSPSSLSASVGDRVTITCQASQDIANYLNWYQQKPGKAPKLLIYDASNLETGVPSRFSGSGSGTDFTFTISSLQPEDIATYYCQQADTLPFTFGGGTKVEIKRTVAAPSVFIFPPSDEQLKSGTASVVCLLNNFYPREAKVQWKVDNALQSGNSQESVTEQDSKDSTYSLSSTLTLSKADYEKHKVYACEVTHQGLSSPVTKSFNRGEC
notes: Fully human IgG1 LAGA, kappa; HEK expressed; also called HEK-expressed 13Y039-3E07-2944
IC50 (read off the curve): ~0.4 nM
